Article PMC4336329 (PLoS ONE, 2015)
Among all 310,000 compounds or so, about 14,000 (4.5%) showed an effect of 50% or more. Effects have a minus sign here. The list shows a part of the results.

Target: human ether-à-go-go-related gene (hERG) potassium channel (human, UniProt Q12809)
Experiment: primary screen, population patch clamp on CHO cells stably expressing hERG
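Also: peak tail current of the secondary pulse compared with the same well before compound.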

Sequence of human ether-à-go-go-related gene (hERG) potassium channel (Q12809 whole entry, looked up): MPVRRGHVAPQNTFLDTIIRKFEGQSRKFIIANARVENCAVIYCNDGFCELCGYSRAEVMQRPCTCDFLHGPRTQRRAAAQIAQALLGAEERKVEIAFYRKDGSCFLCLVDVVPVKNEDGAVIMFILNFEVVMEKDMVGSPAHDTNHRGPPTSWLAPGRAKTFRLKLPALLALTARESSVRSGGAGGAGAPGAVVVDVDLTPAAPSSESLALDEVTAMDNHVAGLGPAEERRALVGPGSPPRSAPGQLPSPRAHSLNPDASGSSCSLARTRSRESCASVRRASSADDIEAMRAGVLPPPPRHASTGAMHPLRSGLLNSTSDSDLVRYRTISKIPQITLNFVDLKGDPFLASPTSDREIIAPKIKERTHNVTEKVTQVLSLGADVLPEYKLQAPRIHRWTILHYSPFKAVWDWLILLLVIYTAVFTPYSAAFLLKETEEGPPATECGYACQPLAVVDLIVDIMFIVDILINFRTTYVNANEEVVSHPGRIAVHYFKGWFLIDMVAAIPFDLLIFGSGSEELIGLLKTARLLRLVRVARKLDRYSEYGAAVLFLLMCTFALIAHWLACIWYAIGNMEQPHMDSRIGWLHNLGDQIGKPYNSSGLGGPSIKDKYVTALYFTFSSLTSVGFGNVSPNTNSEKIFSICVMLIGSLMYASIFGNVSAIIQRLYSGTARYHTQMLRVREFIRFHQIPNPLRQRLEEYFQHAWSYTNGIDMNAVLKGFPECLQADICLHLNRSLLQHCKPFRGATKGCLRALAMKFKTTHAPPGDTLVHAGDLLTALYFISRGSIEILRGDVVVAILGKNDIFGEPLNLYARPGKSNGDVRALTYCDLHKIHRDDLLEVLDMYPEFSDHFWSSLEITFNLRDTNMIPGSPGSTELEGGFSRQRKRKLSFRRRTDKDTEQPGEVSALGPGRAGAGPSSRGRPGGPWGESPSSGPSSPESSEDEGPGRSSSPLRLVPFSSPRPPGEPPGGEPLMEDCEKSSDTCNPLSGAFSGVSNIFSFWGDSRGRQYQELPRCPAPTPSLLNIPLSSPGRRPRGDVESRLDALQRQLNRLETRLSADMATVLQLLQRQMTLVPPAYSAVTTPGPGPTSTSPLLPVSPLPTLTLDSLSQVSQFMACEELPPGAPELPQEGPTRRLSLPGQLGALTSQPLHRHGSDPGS

| SMILES | hERG current change (%, negative = inhibition) at 10uM |
| --- | --- |
| COc1ccc(N(CC(=O)NC(C)(C)C)C(=O)CCC(=O)Nc2nccs2)cc1 | 3.94% |
| O=C(COC(=O)c1ccccc1NC(=O)c1ccco1)NC1CCCCC1 | -13.4% |
| Cc1ccc(-n2nnnc2CN2CCCCC2)cc1 | 10.3% |
| O=C(CCC(=O)OCC(=O)c1ccc(Br)cc1)Nc1ccc(Br)c2cccnc12 | -0.131% |
| CC1=C(C(=O)OCC(C)C)C(c2ccsc2)C2=C(CCCC2=O)N1 (centres unmarked) | -18.9% |
| COc1ccc(-n2c(SCC(=O)/C(C#N)=C(\C)N)nc3ccccc3c2=O)cc1OC | 10.5% |
| CC1(c2nnc(Cc3ccccc3)o2)CC(c2cccnc2)=NO1 (centres unmarked) | 3.26% |
| CCOC(=O)c1ccc(Oc2cn[nH]c2-c2ccc(O)cc2O)cc1 | 10.9% |
| COc1cccc(/C=C/C(=O)OCC(=O)NC2CC2)c1 | 13.2% |
| COc1ccc(-c2[nH]ncc2/C=N\NC(=O)c2ccc(C(C)(C)C)cc2)cc1OC | -9.5% |
| Clc1ccc(CSc2nnc(-c3cccnc3)n2Cc2ccco2)c(Cl)c1 | -68.7% |
| CC(=O)c1ccc(NC(=O)c2noc3c2CCCCC3)cc1 | 7.54% |
| CC1(C)CC(=O)C(N=Nc2c(F)cccc2F)=C(O)C1 | 18.7% |
| COc1cc(CN2C(=O)NC(=O)C3(Cc4cc(C)ccc4N(C)C3)C2=O)cc(OC)c1 (centres unmarked) | -10.7% |
| Cc1ccc(NC(=O)COC(=O)CCC(=O)c2cccs2)c(Br)c1 | 5.47% |
| Cc1ccc(/C=C/C(=O)OCC(=O)Nc2ccccc2Sc2ccccc2)cc1 | -15.3% |
| CC(C)CCn1nc(C(=O)OC(C)C(=O)NC(N)=O)c2ccccc2c1=O (centres unmarked) | 4.86% |
| CCN1CCN(C(=O)C(C)N(c2ccc(C)cc2)S(C)(=O)=O)CC1 (centres unmarked) | 13.7% |
| CC1C=CCC2C(=O)N(c3cccc(C(=O)NCCc4ccccc4)c3)C(=O)C12 (centres unmarked) | -8.03% |
| COc1ccc(C(=O)OC2CCCCC2CN(C)C)cc1.Cl (centres unmarked) | 14.1% |
| Cc1cc(C)c2sc(NC(=O)C3=COCCO3)nc2c1 | -11.6% |
| Cc1ccc2nc(-c3ccccn3)cc(C(=O)NC(C)C(C)(C)C)c2c1 (centres unmarked) | 19.4% |

| SMILES | hERG current change (%, negative = inhibition) at 10uM |
| --- | --- |
| COc1ccccc1NC(=O)Nc1cc(C(C)(C)C)nn1C | 14% |
| CC1=C(C(=O)NCc2ccccc2)C(c2cccs2)n2ncnc2N1 (centres unmarked) | 12.2% |
| Cc1cccc(NS(=O)(=O)c2ccc(C)c(C(=O)NCC(c3ccccc3)N(C)C)c2)c1 (centres unmarked) | -14.2% |
| Cc1nc(Cl)sc1C(=O)Nc1ccccc1Cl | 8.63% |
| COc1ccc(CNC(=O)C2CCN(S(=O)(=O)c3ccc4c(c3)C(C)(C)C(=O)N4C)CC2)cc1 | 4.74% |
| Br.C=CCN1C(c2ccccc2)=CS/C1=C(\C#N)c1nnc2n1CCCCC2 | -59.2% |
| O=C(c1cccc(-c2nnc(-c3ccccc3)o2)c1)N1CCCCC1 | -19.3% |
| O=C(COc1ccccc1Cl)NCc1ccncc1 | -11.5% |
| CN(C)CCCn1c(SCCN2C(=O)c3ccccc3C2=O)nc2ccccc2c1=O | -45% |
| COc1ccc(OC)c(S(=O)(=O)Nc2cc3c4c(c2)CCC(=O)N4CCC3)c1 | 9.75% |
| Cc1ccnc(NC(=O)c2ccccc2NC(=O)c2ccccc2)c1 | 13.7% |
| O=C(c1ccnc(Cl)c1)N1CCCC(Nc2ccc(F)cc2)C1 (centres unmarked) | 5.04% |
| O=C(NC(=S)Nc1cccc([N+](=O)[O-])c1)C1CCCC1 | -16.7% |
| CCn1cnc2cc(NC(=O)c3ccc(C)cc3)ccc21 | 0.392% |
| COc1ccc(NC(=O)CN(C)CC(=O)Nc2cccc(C(F)(F)F)c2)cc1 | -22.4% |
| Cc1cc(OCCCC(=O)NC2=NCCS2)ccc1Cl | 14.2% |
| NC(=O)c1c(Nc2nc3c(F)cccc3s2)sc2c1CCCC2 | 19.5% |
| CCOc1ccccc1NC(=O)C1CCCN(C(=O)NCc2ccccc2)C1 (centres unmarked) | -13.4% |
| c1ccc(-c2nnc3n2N=C(c2ccc4c(c2)OCO4)CS3)nc1 | -32.7% |
| O=S(=O)(c1ccc(Cl)cc1)N1CCN(C(=S)Nc2ccc(F)c(Cl)c2)CC1 | 9.01% |
| O=C(NCCN1CCOCC1)C(Sc1ccccc1)c1ccccc1 (centres unmarked) | -13.5% |
| O=C(Cn1c(=O)c2ccccc2n(CC(=O)N2CCCCC2)c1=O)N1CCCCC1 | 5.67% |
